Measured values taken from publication PMC10668032.
The list shows a part of the results. At the low end of the ranking the order means little.

biological target: SIX1-Q177R homeodomain (UniProt Q15475); assay: universal protein binding microarray; details: Universal all-10-mer PBM (8x60K, AMADID 030236), 300 nM GST-tagged protein, Alexa Fluor 488 anti-GST; buffer, salt, pH and temperature not stated; high values mean tight binding; most listed sequences are background and not binding sites; double strand, one strand shown

Row | Sequence | binding signal [E-score]
1 | CGGGCGGC | 0.021
2 | GAGCAAGA | -0.0996
3 | TCTATTAA | -0.0196
4 | GGTCAATA | 0.0293
5 | AACGCTAA | -0.091
6 | CTTATGCA | -0.0294
7 | CTGACTTC | -0.159
8 | AATCCTAC | 0.0611
9 | ACAAGCCA | -0.0852
10 | AGTATTGG | -0.101
11 | ATTCGTTC | -0.124
12 | CTTCAATA | 0.0683
13 | ATTCTACG | 0.0246
14 | CACGTAAG | 0.107
15 | ACAGACGT | -0.0836
16 | ACATGGGT | 0.209
17 | GTGGTCCA | -0.139
18 | CGGACTAC | -0.0941
19 | TCATCAAA | -0.196
20 | GCACTCCA | 0.0802
21 | AGACTATA | -0.101
22 | GTTCCATA | 0.0438

Row | Sequence | binding signal [E-score]
23 | AAACCACG | -0.0307
24 | CGGGATTC | 0.0315
25 | CCAGCCAG | -0.0604
26 | CTTACTGA | -0.0119
27 | AGCATTAG | -0.168
28 | ATTGCCGG | -0.0374
29 | GAATGACC | -0.0497
30 | GGCTCGTA | 0.0343
31 | GCATTCGC | -0.0774
32 | ACAGATTG | 0.00756
33 | ATATTGCA | -0.122
34 | AAACAGCC | -0.213
35 | AGTTTGAA | -0.18
36 | GCAATCAC | -0.0882
37 | CCTTCCAG | -0.13
38 | ATGCATGC | -0.14
39 | ATGGACGA | -0.151
40 | AGCTGTCG | -0.101
41 | AAGCCAGT | -0.155
42 | CTCGCGAA | -0.191
43 | GCCATTGA | -0.159
44 | ACCCGTTA | 0.119

Row | Sequence | binding signal [E-score]
45 | ATCTACCA | -0.068
46 | CGCTTCTC | -0.0702
47 | CGAGGATC | 0.0989
48 | AGGGGCAT | -0.0339
49 | GACAATCA | -0.0739
50 | GACAGCTA | -0.232
51 | ATCTGCCC | 0.126
52 | CAATTAGG | 0.0238
53 | CATTGGGG | 0.162
54 | AGGCGGCG | 0.0595
55 | ATGAGAGG | -0.113
56 | GTCTCAGA | -0.029
57 | AACGGCCC | -0.13
58 | TCTAGTAA | -0.314
59 | AGTCTTAA | 0.0291
60 | ACAAACAT | -0.184
61 | AGGCGGAT | -4.5e-05
62 | CCGGCTAG | 0.0115
63 | AGTCCACT | -0.00188
64 | TACCGTAA | -0.104
65 | CACATCTG | 0.133
66 | AAGCAATT | -0.224

Row | Sequence | binding signal [E-score]
67 | GTTTCGAA | -0.0215
68 | GTACTAAA | 0.0238
69 | GGATTTCA | -0.0431
70 | AGATGGAG | 0.181
71 | AGCAAAAT | -0.0789
72 | GGATTCGA | 0.118
73 | ATACGCGC | -0.0233
74 | CCATGTCC | -0.188
75 | ATTTCCCG | -0.146
76 | ACCGAGGC | -0.00278
77 | CGAAAGCG | 0.0656
78 | CGCTTTTA | -0.164
79 | ACCCGACC | 0.223
80 | ATCCGAAC | 0.0817
81 | CAACCATC | -0.104
82 | AAAACTTA | -0.148
83 | CGACAAAG | -0.093
84 | CATGCAAC | 0.0746
85 | CTATATGC | -0.0785
86 | ATACACCA | 0.47
